Experimental data from patent US20110077237A1, “KINASE INHIBITORS” (VERTEX PHARMACEUTICALS INCORPORATED, priority 2007, published 2011).
Some of these results come from one statement about several compounds together.

target: PKC theta (Homo sapiens, UniProt Q04759); test: PKC Theta I coupled-enzyme (NADH absorbance) kinase assay; assay type: biochemical; conditions: 18 nM PKC theta, 240 μM ATP, 30° C., absorbance at 340 nm
Method: An assay buffer solution was prepared which consisted of 100 mM HEPES (pH 7.5), 10 mM MgCl2, 25 mM NaCl, 0.1 mM EDTA and 0.01% Brij. […] To 60 μL of this enzyme buffer, in a 384 well plate, was added 2 μL of VRT stock solution in DMSO. The mixture was allowed to equilibrate for 10 mins at 30° C. […] Ki values were calculated from initial rate data by non-linear regression using the Prism software package (Prism 4.0a, Graphpad Software, San Diego, Calif.).

UniProt Q04759, sequence (Q04759 whole entry): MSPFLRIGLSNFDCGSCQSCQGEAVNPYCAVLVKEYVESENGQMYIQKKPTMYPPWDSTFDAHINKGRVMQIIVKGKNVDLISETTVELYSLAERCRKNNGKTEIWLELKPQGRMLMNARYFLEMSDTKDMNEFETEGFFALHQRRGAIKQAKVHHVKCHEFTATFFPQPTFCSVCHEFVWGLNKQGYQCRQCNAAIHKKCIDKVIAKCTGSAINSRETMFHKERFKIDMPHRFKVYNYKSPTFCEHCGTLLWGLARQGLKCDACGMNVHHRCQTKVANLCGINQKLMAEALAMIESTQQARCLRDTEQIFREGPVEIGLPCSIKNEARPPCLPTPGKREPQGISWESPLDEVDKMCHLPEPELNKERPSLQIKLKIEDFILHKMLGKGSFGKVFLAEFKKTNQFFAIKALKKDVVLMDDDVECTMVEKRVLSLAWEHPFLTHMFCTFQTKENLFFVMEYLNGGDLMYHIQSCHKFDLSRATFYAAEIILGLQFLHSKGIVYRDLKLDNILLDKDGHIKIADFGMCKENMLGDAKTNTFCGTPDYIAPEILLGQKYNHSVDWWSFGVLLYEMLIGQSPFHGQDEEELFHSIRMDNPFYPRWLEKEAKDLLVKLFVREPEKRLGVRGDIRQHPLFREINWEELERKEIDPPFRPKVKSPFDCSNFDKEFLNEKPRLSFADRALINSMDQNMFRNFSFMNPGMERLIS

Row | Structure (SMILES) | Ki
1 | Nc1ncccc1C(=O)c1nnc(NC(=O)Cc2ccccc2)s1 [compound 4] | > 2800 nM
2 | CC(C)(C)OC(=O)N1CCCN(c2cccc(C(=O)c3cc(Br)cnc3N)n2)CC1 [compound 5, tert-butyl 4-(6-(2-amino-5-bromonicotinoyl)pyridin-2-yl)-1,4-diazepane-1-carboxylate] | > 2800 nM
3 | CC(C)(C)COC(=O)N1CCCN(c2cccc(C(=O)c3cccnc3N)n2)CC1 [compound 6] | > 2800 nM
4 | Nc1ncccc1C(=O)c1nnc(NC(=O)c2ccccc2)s1 [compound 7] | > 2800 nM
5 | CN(C(=O)c1ccccc1)c1nnc(C(=O)c2cccnc2N)s1 [compound 8] | > 2800 nM
6 | CCOC(=O)N1CCCN(c2cccc(C(=O)c3cccnc3N)n2)CC1 [compound 10] | > 2800 nM
7 | C#CCOC(=O)N1CCCN(c2cccc(C(=O)c3cccnc3N)n2)CC1 [compound 11] | > 2800 nM
8 | Cc1ccc(OC(=O)N2CCCN(c3cccc(C(=O)c4cccnc4N)n3)CC2)cc1 [compound 12] | > 2800 nM
9 | Cc1ccc(CC(=O)N2CCCN(c3cccc(C(=O)c4cccnc4N)n3)CC2)cc1 [compound 13] | > 2800 nM
10 | Nc1ncc(Br)cc1C(=O)c1cccc(N2CCCNCC2)n1 [compound 14, (6-(1,4-diazepan-1-yl)pyridin-2-yl)(2-amino-5-bromopyridin-3-yl)methanone] | < 50 nM
11 | COCCOC(=O)N1CCCN(c2cccc(C(=O)c3cccnc3N)n2)CC1 [compound 16] | > 2800 nM
12 | Nc1ncccc1C(=O)c1cccc(N2CCCN(C(=O)C3CCC(=O)N3)CC2)n1 (stereo not drawn) [compound 30] | > 2800 nM
13 | Nc1ncccc1C(=O)c1cccc(N2CCCN(C(=O)CCC(F)(F)F)CC2)n1 [compound 31] | 50 to 500 nM
14 | Nc1ncccc1C(=O)c1cccc(N2CCCN(C(=O)Cc3ccccc3)CC2)n1 [compound 33] | 50 to 500 nM
15 | CC(C)C(=O)N1CCCN(c2cccc(C(=O)c3cccnc3N)n2)CC1 [compound 34] | 50 to 500 nM
16 | Nc1ncccc1C(=O)c1cccc(N2CCCN(C(=O)CC3CC3)CC2)n1 [compound 35] | 50 to 500 nM
17 | CC(C)(C)C(=O)N1CCCN(c2cccc(C(=O)c3cccnc3N)n2)CC1 [compound 37] | 50 to 500 nM
18 | Cn1ccnc1C(=O)N1CCCN(c2cccc(C(=O)c3cccnc3N)n2)CC1 [compound 40] | > 2800 nM
19 | Nc1ncccc1C(=O)c1cn(Cc2ccccc2)cn1 [compound 42, (2-aminopyridin-3-yl)(1-benzyl-1H-imidazol-4-yl)methanone] | > 2800 nM
20 | CC(C)(C)OC(=O)N1CCCN(c2cccc(C(=O)c3cc(-c4ccccc4)cnc3N)n2)CC1 [compound 43] | > 2800 nM
21 | CC(C)(C)CCN1CCCN(c2cccc(C(=O)c3cccnc3N)n2)CC1 [compound 44] | 50 to 500 nM

Row | Structure (SMILES) | Ki
22 | Nc1ncc(-c2ccccc2)cc1C(=O)c1cccc(N2CCCNCC2)n1 [compound 45] | < 50 nM
23 | Nc1ncccc1C(=O)c1ccc(C(=O)Nc2ccccc2)s1 [compound 46, 5-(2-aminonicotinoyl)-N-phenylthiophene-2-carboxamide 2,2,2-trifluoroacetate] | > 2800 nM
24 | CN1CCN(C(=O)c2ccc(C(=O)c3cccnc3N)s2)CC1 [compound 49] | > 2800 nM
25 | CC(C)(C)OC(=O)N1CCCN(c2cccc(C(=O)c3cc(-c4cccnc4)cnc3N)n2)CC1 [compound 51] | > 2800 nM
26 | CN(Cc1ccccc1)C(=O)c1cnc(C(=O)c2cccnc2N)s1 [compound 54] | > 2800 nM
27 | Cc1ccccc1-c1cnc(N)c(C(=O)c2cccc(N3CCCN(C(=O)OC(C)(C)C)CC3)n2)c1 [compound 55] | > 2800 nM
28 | Cc1ccc(-c2cnc(N)c(C(=O)c3cccc(N4CCCN(C(=O)OC(C)(C)C)CC4)n3)c2)cc1 [compound 56] | > 2800 nM
29 | Cc1ccccc1-c1cnc(N)c(C(=O)c2cccc(N3CCCNCC3)n2)c1 [compound 57] | 50 to 500 nM
30 | Nc1ncc(-c2cccnc2)cc1C(=O)c1cccc(N2CCCNCC2)n1 [compound 58] | 50 to 500 nM
31 | Cc1ccc(-c2cnc(N)c(C(=O)c3cccc(N4CCCNCC4)n3)c2)cc1 [compound 59] | 50 to 500 nM
32 | CNC(=O)c1ccc(C(=O)c2cccnc2N)s1 [compound 61] | > 2800 nM
33 | Nc1ncc(Br)cc1C(=O)c1ncc(C(=O)NCc2ccccc2)s1 [compound 62] | 50 to 500 nM
34 | Nc1ncc(Br)cc1C(=O)c1cn(Cc2ccncc2)cn1 [compound 63] | > 2800 nM
35 | CN(Cc1ccccc1)C(=O)c1cnc(C(=O)c2cc(Br)cnc2N)s1 [compound 64] | > 2800 nM
36 | CN1CCCN(c2cccc(C(=O)c3cc(Br)cnc3N)n2)CC1 [compound 67] | < 50 nM
37 | Nc1ncccc1C(=O)c1ccc(NC(=O)c2ccccc2)s1 [compound 68] | > 2800 nM
38 | Nc1ncc(Br)cc1C(=O)c1cccc(N2CCCN(C(=O)CC(F)(F)F)CC2)n1 [compound 75, 1-(4-(6-(2-amino-5-bromonicotinoyl)pyridin-2-yl)-1,4-diazepan-1-yl)-3,3,3-trifluoropropan-1-one] | 50 to 500 nM
39 | Nc1ncccc1C(=O)c1cnc(N2CCCNCC2)s1 [compound 78] | > 2800 nM
40 | Nc1ncc(Br)cc1C(=O)c1cnc(N2CCCNCC2)s1 [compound 79] | > 2800 nM
41 | Nc1ncc(Br)cc1C(=O)c1ccc(N2CCCNCC2)s1 [compound 80] | > 2800 nM
42 | Nc1ncccc1C(=O)c1ccc(N2CCCNCC2)s1 [compound 81] | > 2800 nM

Row | Structure (SMILES) | Ki
43 | Nc1ncccc1C(=O)c1cccc(N2CCCN(C(=O)c3sccc3Cl)CC2)n1 [compound 92] | 50 to 500 nM
44 | Nc1ncc(Br)cc1C(=O)c1ncc(N2CCCNCC2)s1 [compound 94] | > 2800 nM
45 | Nc1ncc(Br)cc1C(=O)c1cccc(N2CCCN(CCO)CC2)n1 [compound 98] | 50 to 500 nM
46 | CC(C)N1CCN(c2cccc(C(=O)c3cc(Br)cnc3N)n2)CC1 [compound 100] | 50 to 500 nM
47 | Nc1ncccc1C(=O)c1cnc(N2CCCNCC2)s1 [compound 104] | > 2800 nM
48 | C=Cc1cnc(N)c(C(=O)c2cccc(N3CCCN(C(=O)CC(F)(F)F)CC3)n2)c1 [compound 107, 1-(4-(6-(2-amino-5-vinylnicotinoyl)pyridin-2-yl)-1,4-diazepan-1-yl)-3,3,3-trifluoropropan-1-one] | < 50 nM
49 | Cc1sc(N2CCCNCC2)nc1C(=O)c1cccnc1N [compound 109] | 50 to 500 nM
50 | CC(C)(C)OC(=O)NCC1CCN(c2cccc(C(=O)c3cccnc3N)n2)CC1 [compound 127] | > 2800 nM
51 | Nc1ncccc1C(=O)c1cccc(N2CCC(NC(=O)CC(F)(F)F)CC2)n1 [compound 129] | > 2800 nM
52 | Nc1ncc(Br)cc1C(=O)c1cccc(NCCN2CCCCC2)n1 [compound 141] | > 2800 nM
53 | CCN(Cc1ccccc1)c1cccc(C(=O)c2cc(Br)cnc2N)n1 [compound 142] | > 2800 nM
54 | CN(C)CCN(Cc1ccccc1)c1cccc(C(=O)c2cc(Br)cnc2N)n1 [compound 143] | > 2800 nM
55 | Nc1ncc(Br)cc1C(=O)c1cccc(N2CCCC(c3ccccc3)C2)n1 (stereo not drawn) [compound 145] | > 2800 nM
56 | Nc1ncc(Br)cc1C(=O)c1cccc(N2CCC(N3CCCCC3)CC2)n1 [compound 146] | 50 to 500 nM
57 | Nc1ncc(Br)cc1C(=O)c1cncc(N2CCCNCC2)n1 [compound 149] | < 50 nM
58 | Nc1ncc(Br)cc1C(=O)c1cccc(N2CCCN(C(=O)c3ccccc3C(F)(F)F)CC2)n1 [compound 150] | 50 to 500 nM
59 | Nc1ncc(Br)cc1C(=O)c1cccc(N2CCCN(C(=O)c3ccccc3Cl)CC2)n1 [compound 151] | 50 to 500 nM
60 | C=Cc1cnc(N)c(C(=O)c2cccc(N3CCCN(C)CC3)n2)c1 [compound 152] | < 50 nM
61 | CCc1cnc(N)c(C(=O)c2cccc(N3CCCN(C)CC3)n2)c1 [compound 153] | 50 to 500 nM
62 | CN1CCCN(c2cncc(C(=O)c3cc(Br)cnc3N)n2)CC1 [compound 156] | 50 to 500 nM
63 | Nc1ncccc1C(=O)c1cncc(N2CCCNCC2)n1 [compound 157] | 50 to 500 nM

Row | Structure (SMILES) | Ki
64 | Nc1ncccc1C(=O)c1cccc(N2CCC(N3CCCC3)CC2)n1 [compound 158] | > 2800 nM
65 | Nc1ncccc1C(=O)c1cncc(N2CCC(N)CC2)n1 [compound 161] | 50 to 500 nM
66 | Nc1ncc(Br)cc1C(=O)c1cc(C(F)(F)F)cc(N2CCCNCC2)n1 [compound 162] | > 2800 nM
67 | CN1CCCN(c2csc(C(=O)c3cc(Br)cnc3N)n2)CC1 [compound 163] | 50 to 500 nM
68 | C=Cc1cnc(N)c(C(=O)c2cncc(N3CCCNCC3)n2)c1 [compound 165] | < 50 nM
69 | C=Cc1cnc(N)c(C(=O)c2cc(C(F)(F)F)cc(N3CCCNCC3)n2)c1 [compound 166] | > 2800 nM
70 | Nc1ncc(/C=C/c2ccccc2)cc1C(=O)c1cccc(N2CCCNCC2)n1 [compound 167] | 50 to 500 nM
71 | Nc1cccc(-c2cnc(N)c(C(=O)c3cccc(N4CCCNCC4)n3)c2)c1 [compound 169] | 50 to 500 nM
72 | Nc1ccc(-c2cnc(N)c(C(=O)c3cccc(N4CCCNCC4)n3)c2)cc1 [compound 170] | < 50 nM
73 | Nc1ncc(-c2ccc(O)cc2)cc1C(=O)c1cccc(N2CCCNCC2)n1 [compound 171] | 50 to 500 nM
74 | Nc1ncc(-c2cccc(O)c2)cc1C(=O)c1cccc(N2CCCNCC2)n1 [compound 172] | < 50 nM
75 | Nc1ncc(Br)cc1C(=O)c1cccc(N2CCCCC2)n1 [compound 173] | > 2800 nM
76 | Nc1ncc(Br)cc1C(=O)c1cccc(N2CCCCC2CN2CCCCC2)n1 (stereo not drawn) [compound 175] | > 2800 nM
77 | Nc1ncc(Br)cc1C(=O)c1cccc(NCCNc2ccccc2)n1 [compound 176] | > 2800 nM
78 | Nc1ncc(Br)cc1C(=O)c1cccc(N2CCC[C@@H]2CNc2ccccc2)n1 [compound 178] | > 2800 nM
79 | COc1cccc(-c2cnc(N)c(C(=O)c3cccc(N4CCCNCC4)n3)c2)c1 [compound 181] | 50 to 500 nM
80 | Cc1cccc(-c2cnc(N)c(C(=O)c3cccc(N4CCCNCC4)n3)c2)c1 [compound 182] | 50 to 500 nM
81 | Nc1ncc(-c2ccc[nH]2)cc1C(=O)c1cccc(N2CCCNCC2)n1 [compound 183] | 50 to 500 nM
